Reference: the RNAGym collection of RNA variant scans (doi:10.1073/pnas.2313332121)
Variants at the background level are over-represented here.

B1: TPR 5TU (parent)
chain: GGAUCUUCUCGAUCUAACAAAAAAGACAAAUCUGCCACAAAGCUUGAGAGCAUCUUCGGAUGCAGAGGCGGCAGCCUUCGGUGGCGCGAUAGCGCCAACGUUCUCAACUAUGACACGCAAAACGCGUGCUCCGUUGAAUGGAGUUUAUCAUG

Variants of: B1
Experiment: polymerase ribozyme fitness, log enrichment relative to wild type (log ratio); higher = more active; in vitro selection for triplet polymerase activity
Outline: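 Each subunit of a heterodimeric triplet polymerase ribozyme was mutagenized into a library by PCR, transcribed, and subjected to one round of in vitro selection, run in triplicate. Libraries were annealed with a biotinylated primer, the partner subunit and triplets, incubated frozen at −7 °C, and extended constructs were gel-excised, captured on streptavidin beads and recovered by RT-PCR. Input and output libraries were sequenced on Illumina, keeping genotypes with ≥10 input reads and ≥1 read per output. Fitness is log base 2 of genotype enrichment divided by wild-type enrichment, from inverse-variance-weighted replicate averages.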

Variant	polymerase ribozyme fitness (log ratio)
A30C G48C C51A U55A G71A A91C	≤ -4.2
A30C G48C G50U A98G A107G C118U A120C G141U	≤ -4.2
A30C G48U A49C C95G C114G U139A	≤ -4.2
A30C G65A G67C G100A A119U	≤ -4.2
A30C G67C G68A G88A C93A U135C G141C	≤ -4.2
A30C G68A C87U A106U A120G	≤ -4.2
A30C G84A A115C C149U	≤ -4.2
A30C G84U C85G	≤ -4.2
A30C G86U	≤ -4.2
A30C G92C G126A	≤ -4.2
A30C G128U G133C	≤ -4.2
A30C G141C	≤ -4.2
A30C U31C C32A G46C G50C G58U G88C U104C A122G	≤ -4.2
A30C U31C G59A C93U A106U	≤ -4.2
A30C U33G C38A U53A U56A C85G G112C G117C	≤ -4.2
A30C U53A U78G G84U	≤ -4.2
A30G A39C G50A A73G	≤ -4.2
A30G A40C A41G U45A U53A G71A G126C G136U	≤ -4.2
A30G A40G A60U C118A	≤ -4.2
A30G A40G C76A G92C	≤ -4.2
A30G A40G G80U A89C A91G G152U	≤ -4.2

Variant	polymerase ribozyme fitness (log ratio)
A30G A47U A64G G94A	-3.57
A30G A49C C54A C69U C87G C114G C131U A142C	≤ -4.2
A30G A52C U53A C54G C57U G94C C96G U144A	≤ -4.2
A30G A60G C93A C105G C132A A142U	≤ -4.2
A30G A64G G136C	-4.07
A30G A91U A137G G141U	≤ -4.2
A30G A97G G141C U146C	≤ -4.2
A30G A121U	-3.39
A30G C35G G59C A60G G80A G92C G124U C129G	≤ -4.2
A30G C36A A66G G117U G126U	≤ -4.2
A30G C51A A91U C123U U134G	≤ -4.2
A30G C54G A121U U139A U145C	≤ -4.2
A30G C54G C63A A73C C95U G128A	≤ -4.2
A30G C63A A73G C108G C129G	≤ -4.2
A30G C87U A110U C131A G136U G141U	≤ -4.2
A30G C87U U101A U109C A115U A120U A122U U145G G152A	≤ -4.2
A30G C93A	-3.95
A30G G42A	≤ -4.2
A30G G42A A47C C95U A98C C116U G141C U144A	≤ -4.2
A30G G42U A52C C57A C96A A120G	≤ -4.2
A30G G48A G80U G88U U109C	≤ -4.2

Variant	polymerase ribozyme fitness (log ratio)
A30G G50C C96A G141A	≤ -4.2
A30G G62C A66U C105G U134C	≤ -4.2
A30G G83A U102G A107U	≤ -4.2
A30G G86C A147C	≤ -4.2
A30G U33A A49C G59C G67U C93G C132U A147U	≤ -4.2
A30G U45A A106C U135G	-3.85
A30G U53C U90G A91U U134C	≤ -4.2
A30G U53G A73U U82G G112U A120G G128U	≤ -4.2
A30G U55A C79G G81A	≤ -4.2
A30G U55G C57A U77G G94U C108U	≤ -4.2
A30G U139C G141A G143U	≤ -4.2
A30U A37U G59C C118G C123U	≤ -4.2
A30U A39C U61A G94C A121U C125U G141A	≤ -4.2
A30U A39G A47C U55G U134G	≤ -4.2
A30U A39G A98G C99U C105G	≤ -4.2
A30U A39U G67A C95A A106C	≤ -4.2
A30U A40G G50C G67A C76A C85U A89C C132U	≤ -4.2
A30U A41U G67C C96U C118G U135C	≤ -4.2
A30U A49G A52G G58C U78A A110U C123U A142C	≤ -4.2
A30U A49U G84A A107U A121U G133C	≤ -4.2
A30U A52C C96G U101G U148A	≤ -4.2

Variant	polymerase ribozyme fitness (log ratio)
A30U A52G G81A	≤ -4.2
A30U A52G U53A U146G	≤ -4.2
A30U A52U G70A	≤ -4.2
A30U A60C G62A C76A C96G U127G G143C	≤ -4.2
A30U A64C U146C	≤ -4.2
A30U A64G C75G C79U U102G C125A	≤ -4.2
A30U A64G U139G U144A	≤ -4.2
A30U A64U	≤ -4.2
A30U A66U C85U A106C	≤ -4.2
A30U A89U C95A G117A A138G G140U	≤ -4.2
A30U C32G C54A C57G C99U A107G	≤ -4.2
A30U C32G C54U C96G U146A	≤ -4.2
A30U C32U C72A C96G A120U G124A G128A	≤ -4.2
A30U C32U G48A C51U U56G C76U	≤ -4.2
A30U C35A C131G	≤ -4.2
A30U C35U G141U	≤ -4.2
A30U C36U G58U G83C C87U U104G A115U U146G	≤ -4.2
A30U C43U G70U C87G	≤ -4.2
A30U C51U A60G C95U U102G	≤ -4.2
A30U C51U G94U A107U G133U	≤ -4.2
A30U C54U A73G C95A C116U	-4.03
